# Reference: paper PMC5892938
# Some of the results follow. At the low end of the ranking, values are background and their order means little.
# Target: GST-SBP-SLBP (stem-loop binding protein) (UniProt Q14493)
# Experiment: targeted RNA Bind-n-Seq;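 further: DESeq read counts versus GST-SBP nonspecific binding control pulldown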
# Conditions: RBNS binding buffer: 25 mM Tris pH 7.5, 150 mM KCl, 3 mM MgCl2, 0.1% Tween, 0.5 mg/mL BSA, 1 mM DTT; 27 nM protein, 750 pM RNA pool; temperature not stated; high values mean tight binding
row,Sequence,binding signal (log2 fold change)
1,GGUCACGUCUCAAUCAACUCAUUCCCAGGAGUUUACUCCUGCAUAUUCAACAGCUCGCAGUCAAG,-0.0471
2,GGUCACGUCUCAAUCAACUCCUUCGAGGGGGGGAAAACCCCUUUACCCUCAAAUUCAACAGCUCGCAGUCAAG,-0.0686
3,GGUCACGUCUCAAUCAACUCAUACGAGGGGGGGAAAACCCCUUUACCCUCACUAUCAACAGCUCGCAGUCAAG,-0.0113
4,GGUCACGUCUCAAUCAACUCAUCUUCAGGAGUUUACUCCUGUUAUUUCAACAGCUCGCAGUCAAG,-0.0176
5,GGUCACGUCUCAAUCAACUCUAUCUCAGGAGUUUGCUCCUGCUUAUUCAACAGCUCGCAGUCAAG,0.0887
6,GGUCACGUCUCAAUCAACUCAUCUCCAGGAGUUUUCUCCUGUAUACUCAACAGCUCGCAGUCAAG,-0.00572
7,GGUCACGUCUCAAUCAACUCUCCCGAGGGGGGGAAAACCCCUUUGCCCUCAUCUUCAACAGCUCGCAGUCAAG,0.109
8,GGUCACGUCUCAAUCAACUCUACUCCAGGAGUUUUCUCCUGCAUUCUCAACAGCUCGCAGUCAAG,-0.138
9,GGUCACGUCUCAAUCAACUCAUCGCCCAGGGAAACCCCUGGUUAAUUCAACAGCUCGCAGUCAAG,-0.0787
10,GGUCACGUCUCAAUCAACUCCCCAGAGGGGGGGAAAACCCCUUUACCCUCAAAAUCAACAGCUCGCAGUCAAG,-0.517
11,GGUCACGUCUCAAUCAACUCAACUCCCAGGGAAACCCCUGGUAUACUCAACAGCUCGCAGUCAAG,-0.13
12,GGUCACGUCUCAAUCAACUCUACUUCAGGAGUUUUCUCCUGCAAAUUCAACAGCUCGCAGUCAAG,0.0993
13,GGUCACGUCUCAAUCAACUCAAUCGCAGGAGUUUCCUCCUGGUUUUUCAACAGCUCGCAGUCAAG,-0.0683
14,GGUCACGUCUCAAUCAACUCUUCCCCAGGAGUUUUCUCCUGCUUAUUCAACAGCUCGCAGUCAAG,0.0205
15,GGUCACGUCUCAAUCAACUCCAAAGAGGGGGGGAAAACCCCUUUGCCCUCCAAAUCAACAGCUCGCAGUCAAG,-0.387
16,GGUCACGUCUCAAUCAACUCAUUUCCCAGGGAAAUCCCUGGUAUACUCAACAGCUCGCAGUCAAG,0.00235
17,GGUCACGUCUCAAUCAACUCUAUCCCAGGAGUUUACUCCUGUAAUUUCAACAGCUCGCAGUCAAG,0.0931
18,GGUCACGUCUCAAUCAACUCUUUUUCAGGAGUUUCCUCCUGCAAUUUCAACAGCUCGCAGUCAAG,-0.102
19,GGUCACGUCUCAAUCAACUCUCAAGAGGGGGGGAAAACCCCUUUGCCCUCGAAAUCAACAGCUCGCAGUCAAG,-0.383
20,GGUCACGUCUCAAUCAACUCUUUCUCCAGGGAAAUCCCUGGUUUUCUCAACAGCUCGCAGUCAAG,0.0165
21,GGUCACGUCUCAAUCAACUCUAUUCCAGGAGUUUACUCCUGUUUUCUCAACAGCUCGCAGUCAAG,0.0145
22,GGUCACGUCUCAAUCAACUCAAUCCCCAGGGAAACCCCUGGUUUAUUCAACAGCUCGCAGUCAAG,-0.111
23,GGUCACGUCUCAAUCAACUCACACGAGGGGGGGAAAACCCCUUUGCCCUCAAUAUCAACAGCUCGCAGUCAAG,-0.262
24,GGUCACGUCUCAAUCAACUCAUCUUCCAGGGAAAGCCCUGGUUAUCUCAACAGCUCGCAGUCAAG,0.0814

row,Sequence,binding signal (log2 fold change)
1,GGUCACGUCUCAAUCAACUCCAUAGAGGGGGGGAAAACCCCUUUGCCCUCCAACUCAACAGCUCGCAGUCAAG,-0.237
2,GGUCACGUCUCAAUCAACUCAUCUUCCAGGGAAAACCCUGGUAAUUUCAACAGCUCGCAGUCAAG,0.171
3,GGUCACGUCUCAAUCAACUCAACUUCAGGAGUUUCCUCCUGUAAUCUCAACAGCUCGCAGUCAAG,-0.0198
4,GGUCACGUCUCAAUCAACUCUUUCUCAGGAGUUUCCUCCUGCUAUUUCAACAGCUCGCAGUCAAG,-0.0274
5,GGUCACGUCUCAAUCAACUCAACUCCCAGGGAAAGCCCUGGUAAUUUCAACAGCUCGCAGUCAAG,-0.169
6,GGUCACGUCUCAAUCAACUCAGUCUCCAGGGAAAUCCCUGGCAUUCUCAACAGCUCGCAGUCAAG,0.00506
7,GGUCACGUCUCAAUCAACUCUUACGAGGGGGGGAAAACCCCUUUGCCCUCAAUUUCAACAGCUCGCAGUCAAG,-0.0436
8,GGUCACGUCUCAAUCAACUCAACUUCAGGAGUUUCCUCCUGCUUUCUCAACAGCUCGCAGUCAAG,0.231
9,GGUCACGUCUCAAUCAACUCAUUCUCCAGGGAAAGCCCUGGCAUUUUCAACAGCUCGCAGUCAAG,0.0333
10,GGUCACGUCUCAAUCAACUCAUCCCCCAGGGAAAACCCUGGUAUUCUCAACAGCUCGCAGUCAAG,-0.304
11,GGUCACGUCUCAAUCAACUCAUUCUCCAGGGAAAGCCCUGGUUUUCUCAACAGCUCGCAGUCAAG,-0.109
12,GGUCACGUCUCAAUCAACUCUUCGUCCAGGGAAACCCCUGGUAUUUUCAACAGCUCGCAGUCAAG,0.0873
13,GGUCACGUCUCAAUCAACUCAUCUCCAGGAGUUUACUCCUGUUUAUUCAACAGCUCGCAGUCAAG,-0.0985
14,GGUCACGUCUCAAUCAACUCAAUCUCAGGAGUUUACUCCUGCAAACUCAACAGCUCGCAGUCAAG,-0.0242
15,GGUCACGUCUCAAUCAACUCUUUCCCAGGAGUUUCCUCCUGUAUUUUCAACAGCUCGCAGUCAAG,0.194
16,GGUCACGUCUCAAUCAACUCUUUUCCCAGGGAAAUCCCUGGCAAUUUCAACAGCUCGCAGUCAAG,0.0515
17,GGUCACGUCUCAAUCAACUCAAAAGAGGGGGGGAAAACCCCUUUACCCUCACAUUCAACAGCUCGCAGUCAAG,-0.177
18,GGUCACGUCUCAAUCAACUCAUUCUCCAGGGAAAACCCUGGCUUUCUCAACAGCUCGCAGUCAAG,0.0843
19,GGUCACGUCUCAAUCAACUCUACUUCCAGGGAAAGCCCUGGUUUACUCAACAGCUCGCAGUCAAG,0.0147
20,GGUCACGUCUCAAUCAACUCUUCGUCCAGGGAAAACCCUGGCUAUUUCAACAGCUCGCAGUCAAG,-0.161
21,GGUCACGUCUCAAUCAACUCAUUCCCCAGGGAAAUCCCUGGUUAACUCAACAGCUCGCAGUCAAG,-0.269
22,GGUCACGUCUCAAUCAACUCAUUCUCCAGGGAAAUCCCUGGCAUUCUCAACAGCUCGCAGUCAAG,-0.109
23,GGUCACGUCUCAAUCAACUCAUUUCCAGGAGUUUACUCCUGUUAUCUCAACAGCUCGCAGUCAAG,0.184
